# In the supplement of paper PMC8728848:
# The other results are listed elsewhere or left out.
# B1: Nictaba (Nicotiana tabacum), Q94EW1 (protein)
# chain: MQGQWIAARDLSITWVDNPQYWTWKTVDPNIEVAELRRVAWLDIYGKIETKNLIRKTSYAVYLVFKLTDNPRELERATASLRFVNEVAEGAGIEGTTVFISKKKKLPGELGRFPHLRSDGWLEIKLGEFFNNLGEDGEVEMRLMEINDKTWKSGIIVKGFDIRPN
# How the values were obtained:
# Experiment in all cases: glycan array binding signal (z-score within array); higher = stronger binding
# Conditions in all cases: glycan notation: IUPAC condensed, linker removed
# [1] = target: Neu5Ac(a2-6)Gal(b1-4)GlcNAc(b1-3)GalNAc
# In short: (§1)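 From the Consortium for Functional Glycomics database, 3228 arrays were curated, keeping only those whose protein sequence was available. Binding is given as a within-array Z-score averaged across arrays sharing a protein sequence and across linkers. Negative Z-scores can be read as non-binding.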
# [2] = target: Neu5Ac(a2-6)Gal(b1-4)GlcNAc(b1-3)[Neu5Ac(a2-6)Gal(b1-4)GlcNAc(b1-6)]GalNAc
# In short: as §1
# [3] = target: Neu5Ac(a2-6)Gal(b1-4)GlcNAc(b1-6)GalNAc
# In short: as §1
# [4] = target: Neu5Ac(a2-6)Gal(b1-4)GlcNAc(b1-6)[Gal(b1-3)GlcNAc(b1-3)]Gal(b1-4)Glc
# In short: as §1
# [5] = target: Neu5Ac(a2-6)Gal(b1-4)GlcNAc(b1-6)[Gal(b1-3)]GalNAc
# In short: as §1
# [6] = target: Neu5Ac(a2-6)Gal(b1-4)GlcNAc6S
# In short: as §1
# Neu5Ac(a2-6)GalNAc = target: Neu5Ac(a2-6)GalNAc
# In short: as §1
# [7] = target: Neu5Ac(a2-6)GalNAc(b1-4)GlcNAc
# In short: as §1
# [8] = target: Neu5Ac(a2-6)GalNAc(b1-4)GlcNAc6S
# In short: as §1
# [9] = target: Neu5Ac(a2-6)GlcNAc(b1-4)GlcNAc
# In short: as §1
# [10] = target: Neu5Ac(a2-6)GlcNAc(b1-4)GlcNAc(b1-4)GlcNAc
# In short: as §1
# Neu5Ac(a2-8)Neu5Ac = target: Neu5Ac(a2-8)Neu5Ac
# In short: as §1
# [11] = target: Neu5Ac(a2-8)Neu5Ac(a2-3)Gal(b1-3)GalNAc(b1-4)[Neu5Ac(a2-3)]Gal(b1-4)Glc
# In short: as §1
# [12] = target: Neu5Ac(a2-8)Neu5Ac(a2-3)Gal(b1-3)GalNAc(b1-4)[Neu5Ac(a2-8)Neu5Ac(a2-3)]Gal(b1-4)Glc
# In short: as §1
# [13] = target: Neu5Ac(a2-8)Neu5Ac(a2-3)Gal(b1-4)Glc
# In short: as §1
# [14] = target: Neu5Ac(a2-8)Neu5Ac(a2-3)Gal(b1-4)GlcNAc
# In short: as §1
# [15] = target: Neu5Ac(a2-8)Neu5Ac(a2-3)[Gal(b1-3)GalNAc(b1-4)]Gal(b1-4)Glc
# In short: as §1
# [16] = target: Neu5Ac(a2-8)Neu5Ac(a2-3)[GalNAc(b1-4)]Gal(b1-4)Glc
# In short: as §1
# [17] = target: Neu5Ac(a2-8)Neu5Ac(a2-8)Neu5Ac
# In short: as §1
# [18] = target: Neu5Ac(a2-8)Neu5Ac(a2-8)Neu5Ac(a2-3)Gal(b1-4)Glc
# In short: as §1
# [19] = target: Neu5Ac(a2-8)Neu5Ac(a2-8)Neu5Ac(a2-3)[Gal(b1-3)GalNAc(b1-4)]Gal(b1-4)Glc
# In short: as §1
# [20] = target: Neu5Ac(a2-8)Neu5Ac(a2-8)Neu5Ac(a2-3)[GalNAc(b1-4)]Gal(b1-4)Glc
# In short: as §1
# [21] = target: Neu5Ac(a2-8)Neu5Ac(a2-8)Neu5Ac(a2-8)Neu5Ac(a2-3)[GalNAc(b1-4)]Gal(b1-4)Glc
# In short: as §1
# [22] = target: Neu5Ac(a2-8)Neu5Gc(a2-3)Gal(b1-4)GlcNAc
# In short: as §1
# [23] = target: Neu5Ac(b2-6)Gal(b1-4)GlcNAc
# In short: as §1
# Neu5Ac(b2-6)GalNAc = target: Neu5Ac(b2-6)GalNAc
# In short: as §1
# [24] = target: Neu5Ac9Ac(a2-3)Gal(b1-3)GlcNAc
# In short: as §1
# [25] = target: Neu5Ac9Ac(a2-3)Gal(b1-4)GlcNAc
# In short: as §1
# [26] = target: Neu5Ac9Ac(a2-6)Gal(b1-4)GlcNAc
# In short: as §1
# [27] = target: Neu5Gc(a2-3)Gal(b1-3)GlcNAc
# In short: as §1
# [28] = target: Neu5Gc(a2-3)Gal(b1-3)[Fuc(a1-4)]GlcNAc
# In short: as §1
# Neu5Gc(a2-3)Gal(b1-4)Glc = target: Neu5Gc(a2-3)Gal(b1-4)Glc
# In short: as §1
# [29] = target: Neu5Gc(a2-3)Gal(b1-4)GlcNAc
# In short: as §1
# [30] = target: Neu5Gc(a2-3)Gal(b1-4)GlcNAc(b1-3)Gal(b1-4)GlcNAc(b1-2)Man(a1-3)[Neu5Gc(a2-3)Gal(b1-4)GlcNAc(b1-3)Gal(b1-4)GlcNAc(b1-2)Man(a1-6)]Man(b1-4)GlcNAc(b1-4)GlcNAc
# In short: as §1
# [31] = target: Neu5Gc(a2-3)Gal(b1-4)[Fuc(a1-3)]GlcNAc
# In short: as §1
# [32] = target: Neu5Gc(a2-3)Gal(b1-4)[Fuc(a1-4)]GlcNAc
# In short: as §1
# [33] = target: Neu5Gc(a2-6)Gal(b1-4)GlcNAc
# In short: as §1
# Neu5Gc(a2-6)GalNAc = target: Neu5Gc(a2-6)GalNAc
# In short: as §1
# [34] = target: Neu5Gc(a2-8)Neu5Ac(a2-3)Gal(b1-4)GlcNAc
# In short: as §1
# [35] = target: Neu5Gc(a2-8)Neu5Gc(a2-3)Gal(b1-4)GlcNAc
# In short: as §1
# [36] = target: Neu5Gc(a2-8)Neu5Gc(a2-3)Gal(b1-4)GlcNAc(b1-3)Gal(b1-4)GlcNAc
# In short: as §1
# [37] = target: Neu5Gc(a2-8)Neu5Gc(a2-6)Gal(b1-4)GlcNAc
# In short: as §1
# [38] = target: Neu5Gc(b2-6)Gal(b1-4)GlcNAc
# In short: as §1
binder,measurement,setting,value
B1,glycan array binding signal (z-score),[1],-0.263
same,glycan array binding signal (z-score),[2],-0.384
same,glycan array binding signal (z-score),[3],-0.381
same,glycan array binding signal (z-score),[4],-0.387
same,glycan array binding signal (z-score),[5],-0.386
same,glycan array binding signal (z-score),[6],-0.213
same,glycan array binding signal (z-score),Neu5Ac(a2-6)GalNAc,-0.295
same,glycan array binding signal (z-score),[7],-0.252
same,glycan array binding signal (z-score),[8],-0.388
same,glycan array binding signal (z-score),[9],-0.296
same,glycan array binding signal (z-score),[10],-0.259
same,glycan array binding signal (z-score),Neu5Ac(a2-8)Neu5Ac,-0.24
same,glycan array binding signal (z-score),[11],-0.385
same,glycan array binding signal (z-score),[12],-0.331
same,glycan array binding signal (z-score),[13],-0.236
same,glycan array binding signal (z-score),[14],-0.384
same,glycan array binding signal (z-score),[15],-0.3
same,glycan array binding signal (z-score),[16],-0.295
same,glycan array binding signal (z-score),[17],-0.28
same,glycan array binding signal (z-score),[18],-0.282
same,glycan array binding signal (z-score),[19],-0.384
same,glycan array binding signal (z-score),[20],-0.287
same,glycan array binding signal (z-score),[21],-0.244
same,glycan array binding signal (z-score),[22],-0.386
same,glycan array binding signal (z-score),[23],-0.273
same,glycan array binding signal (z-score),Neu5Ac(b2-6)GalNAc,-0.315
same,glycan array binding signal (z-score),[24],-0.317
same,glycan array binding signal (z-score),[25],-0.211
same,glycan array binding signal (z-score),[26],-0.303
same,glycan array binding signal (z-score),[27],-0.294
same,glycan array binding signal (z-score),[28],-0.273
same,glycan array binding signal (z-score),Neu5Gc(a2-3)Gal(b1-4)Glc,-0.254
same,glycan array binding signal (z-score),[29],-0.212
same,glycan array binding signal (z-score),[30],0.883
same,glycan array binding signal (z-score),[31],-0.366
same,glycan array binding signal (z-score),[32],-0.239
same,glycan array binding signal (z-score),[33],-0.286
same,glycan array binding signal (z-score),Neu5Gc(a2-6)GalNAc,-0.271
same,glycan array binding signal (z-score),[34],-0.386
same,glycan array binding signal (z-score),[35],-0.388
same,glycan array binding signal (z-score),[36],-0.388
same,glycan array binding signal (z-score),[37],-0.385
same,glycan array binding signal (z-score),[38],-0.289
